This is an account of results in PubChem BioAssay (NCI).

“And” between values parts separate entries of the source, which are not always exact repeats. Identical values can stand only once.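 The compound was tested at five concentrations on cells cultured in 96-well plates, with a 48-hour exposure period. GI50 = concentration required for 50% inhibition of growth. TGI denotes the concentration required for complete inhibition of growth.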 Bounds are passed on as bounds.

This experiment relates to NCI-H322M lung. The experiment in a line: DTP human tumour cell line panel, 48 h.
What is called GI50 is the concentration at which growth is held to half of that of the control. As usually defined, the TGI is the concentration giving total growth inhibition. Lower therefore signals greater sensitivity of the cells. As to `O=C(COc1cccc(/C=C2\CSc3ccc(Cl)cc3C2=O)c1)c1ccc(Cl)cc1`, the GI50 is 27100 nM and the TGI was above 100 µM.
The corresponding values for `Cc1ccc(C=C2C(Cl)=C(Cl)C(Cl)=C2Cl)cc1` are 1830 nM and 3.63 µM.
Molecule `CC(=O)Nc1ccc(-c2nnc(SCC(=O)Nc3cccc(Cl)c3)o2)cc1` had a TGI of 33.4 µM.
Turning to `O=c1[nH]c(N/N=C\C(=N/Nc2nc3ccccc3c(=O)[nH]2)C(O)C(O)C(O)CO)nc2ccccc12` (stereo not given), the concentration for total growth inhibition (TGI) is above 100 µM.
The molecule `CCn1c2ccccc2c(=O)c2c(OC)ccc(OC)c21` registered a TGI above 100 µM.
Still for that read-out and setting: for `Cn1c(=O)c2nc3c(=O)n(C)c(=O)n(CC(N)=O)c3nc2n(C)c1=O` the value was above 100 µM.
Turning to `O=C1CC(c2ccccc2)Cc2nc3ccc(Br)cc3cc21` (stereo not given), the GI50 is 766 nM and the TGI is above 100 µM.
The molecule `Cc1ccc(/C=C(\NC(=O)c2ccccc2)c2nc3ccccc3[nH]2)cc1` returned a TGI above 100 µM.
On the same count and under the same terms, the same measure for `CCC1(CC)C(=O)N(C(=O)c2ccccc2)N(C(=O)c2ccc(Cl)cc2)C1=O`: above 75 µM.
`N#CC1=C(N)NC(=S)NC12Nc1ccccc1S2` (stereo not given): the GI50 is 26700 nM and the total growth inhibition concentration (TGI) is 84 µM.
With `O=C(O)c1cc(=O)cc(C(=O)O)o1`, the GI50 is above 100000 nM and the total growth inhibition concentration (TGI) is above 100 µM.
With `CC12CCC(=O)N1c1cncnc1N2` (stereo not given), the TGI was above 10 µM.
Still for that read-out and setting: for `CN/C=C(\C(=O)c1ccc(OC)c(OC)c1)c1ccc(OC)cc1` the value was above 100 µM; for `CSc1nc(CO)c(CO)n1C`, above 100 µM.
Still for that read-out and setting: for `CC1C(=O)CC(c2cccs2)N(N=O)C1c1cccs1` (stereo not given) the value was above 100 µM; for `C/C=C/C=C\C=C/C(O)C(C)C(CCC(C)C1OC(=O)C=CC1C)OP(=O)(O)O` (stereo not given), 2.09 µM; for `CCOC(=O)CC[C@H](NC(=O)N[C@H](C)c1ccccc1)C(=O)OCC`, above 100 µM.
The same measure, in the same setting: the same measure for `CCOC(=O)C(NC(C)=O)(Nc1ccc(S(N)(=O)=O)cc1)C(F)(F)F` (stereo not given): above 100 µM.
`CC(C)(c1ccccc1)c1cc(O)c(C(C)(C)c2ccccc2)cc1O`: the GI50 was 3230 nM and the total growth inhibition concentration (TGI) was 15.8 µM.
Turning to `O=c1cnnc(N/N=C/c2ccccc2O)[nH]1`, the GI50 is 1910 nM and the TGI was above 100 µM.
Regarding `CC1=C(C)C(=O)O[C@@H]([C@](C)(O)[C@]2(O)CC[C@@]3(O)[C@@H]4C[C@H](O)[C@]5(O)[C@@H](O)C=CC(=O)[C@]5(C)[C@H]4CC[C@]23C)C1`, the total growth inhibition concentration (TGI) is above 100 µM.
In the case of `CC(=O)CC/C=C(\C)[C@H](O)[C@H](C)C(=O)O[C@H]1C[C@H](C)C=C2C=C[C@@]3(C)O[C@@H](O)CC(=O)[C@]3(C)[C@H]21`, the GI50 is 1110 nM and the total growth inhibition concentration (TGI) worked out at 4.93 µM.
In turn, `O=C(O)c1ccc(C(O)(c2ccccc2)c2ccccc2)cc1` returned a TGI above 100 µM.
As for `O=C(c1ccc(C(F)(F)F)c(Cl)c1)N(Cc1ccc(Cl)cc1)c1ccc(-c2cc(C(F)(F)F)[nH]n2)c(O)c1`, the GI50 was 1400 nM and the total growth inhibition concentration (TGI) worked out at 5.31 µM.
`COc1ccc(CCN(CC(=O)N(CC(N)=O)C2CCC[C@@H]2OCc2ccccc2)C(=O)CN(C(=O)CN(CCc2ccc(Cl)cc2)C(=O)CN(C(=O)CN(C)Cc2ccccc2F)[C@H](C)C2CCCCC2)[C@H](C)C2CCCCC2)cc1OC` (stereo not given in full): the GI50 is 1840 nM and the TGI was above 50 µM.
`O=C1/C(=C/c2ccc(O)cc2)CCc2ccc([N+](=O)[O-])cc21` registered a TGI above 100 µM.
Molecule `CC(=O)NCCCCN(CCCNC(C)=O)C(=O)CNS(=O)(=O)c1cccc2c(N(C)C)cccc12` gave a total growth inhibition concentration (TGI) above 100 µM.
Still for that read-out and setting: the same measure for `Nc1[nH]c(=S)nc2nc3c(c(-c4ccccc4)c12)CCCC3`: above 100 µM; for `COc1ccc(C(=O)c2c3cc(OC)c(OC)c(OC)c3cc[n+]2C)cc1`: above 100 µM; for `Oc1ccc2ccccc2c1N=Nc1cc(Cl)ccc1Cl`: above 50 µM.
As for `CC(=O)Nc1cccc(N2C(=O)/C(=C\c3cccc(Oc4ccccc4)c3)S(=O)(=O)C2c2ccccc2)c1` (stereo not given), the concentration for total growth inhibition (TGI) is above 100 µM.
Still for that read-out and setting: for `Cc1cc(=O)oc2c(CNC(CO)C(=O)O)c(O)ccc12` (stereo not given) the value was above 100 µM; for `Oc1[nH]c(=S)[nH]c1/C=C1/C(c2ccccc2)=Nc2ccccc21`, 31.9 µM.
Same read-out and setting: for `O=c1oc2ccccc2c(O)c1C(c1cnc2ccccc2c1)c1c(O)c2ccccc2oc1=O` the value was above 100 µM.
Turning to `O=Nc1c(-c2c(O)[nH]c3cc(Br)ccc23)[nH]c2ccccc12`, the GI50 is 1350 nM and the TGI was found to be 4.09 µM.
Turning to `N#Cc1c(NC(=O)c2ccc(F)cc2)sc2c1CCCC2`, the GI50 is above 25000 nM and the TGI is above 25 µM.
In turn, `S=c1c2[nH]cnc2ncn1CCSC1=NC=NC2=NC=NC21` (stereo not given) had a TGI above 100 µM.
The same measure, in the same setting: for `CC1(CO)COS(=O)OC1` (stereo not given) the value was above 100 µM.
Molecule `CCC/C(Cl)=N/OC(=O)Nc1cc(C(F)(F)F)ccc1OC` yielded a TGI of 31.3 µM. This lies in the double-digit micromolar range.
Same read-out and setting: the same measure for `O=[N+]([O-])c1ccc(N/N=C2/CC3=C2CCCCCCCCCC3)c([N+](=O)[O-])c1`: above 100 µM.
Same read-out and setting: for `CN(C)CCNC(=O)c1cc(Cl)cc2cc3ccccc3nc12` the value was 4.48 µM.
For the molecule `CN(C)CCCSc1ccccc1NC1=C(Cl)C(=O)C(Nc2ccccc2SCCCN(C)C)=C(Cl)C1=O`, the GI50 is 12500 nM and the TGI amounted to 25.2 µM.
For `CSc1ccc2c(cc1=O)[C@@H](NC(=O)c1ccc(Cl)cc1)CCc1cc(O)c(O)c(O)c1-2`, the TGI was above 100 µM.
Same read-out and setting: the same measure for `O=C(/C=C/c1ccccc1O)c1ccc([N+](=O)[O-])cc1`: 50.8 µM.
As to `COc1cc(/C=C2\CCC/C(=C\c3ccc(O)c(OC)c3)C2=O)ccc1O`, the GI50 was 2750 nM; the total growth inhibition concentration (TGI) was 47.1 µM and 11 µM.
`NS(=O)(=O)c1ccc(Nc2c3ccccc3nc3c(C(=O)N4CCN(CCO)CC4)cccc23)cc1` showed a TGI above 100 µM.
Turning to `Clc1cc(Cl)c(OCCCCCCN2CCNCC2)c(Cl)c1`, the GI50 was 2880 nM and the TGI amounted to 9.26 µM.
Regarding `O=[N+]([O-])c1cccc(-c2ncc3c(n2)-c2ccccc2C3)c1`, the TGI was above 100 µM.
On the same count and under the same terms, for `O=C1CSC(c2ccccc2)N1c1ccc(-n2c(-c3ccccc3)nc3ccccc3c2=O)cc1` (stereo not given) the value was above 100 µM; for `COc1ccc2c(=O)cc(-c3ccc(OC)c(OC)c3OC)oc2c1`, above 100 µM.
The molecule `Cc1ccc(S(=O)(=O)N2CCN(C=S)CC2)cc1` displayed a TGI above 100 µM.
The same measure, in the same setting: for `NC(CCOCCP(=O)(O)CCC1C=CC=CC1)C(=O)O` (stereo not given) the value was above 100 µM; for `COC(=O)c1cc(=O)n(-c2ccc3nn(C)nc3c2)cc1C(=O)OC`, above 100 µM; for `CN(C)Cc1cc(C(=O)/C=C/c2ccc(Cl)c(Cl)c2)cc(CN(C)C)c1O`, 12.9 µM.
On the same count and under the same terms, for `O=C(CSCC(=O)N/N=C/c1ccccc1)N/N=C\c1ccccc1` the value was above 100 µM; for `O=C1C=CC(=C(c2ccccc2)c2ccc(O)cc2)C=C1`, 30.9 µM.
On to `Cn1cc(C2=C(c3cn(-c4ccccc4)c4ccccc34)C(=O)NC2=O)c2ccccc21`, for which the GI50 was above 25000 nM and the concentration for total growth inhibition (TGI) is above 25 µM.
Turning to `O=C1Cc2nc(CO)c(CO)c(CO)c2CO1`, the TGI is above 100 µM.
Still for that read-out and setting: for `O=C(CCc1ccccc1)NS(=O)(=O)c1ccccc1` the value was above 100 µM.
Take `COc1cc([N+](=O)[O-])c(OC)cc1-c1nc2sc(C)cn2c1/C(N)=N/C(=N)N`: the GI50 is 20400 nM and the TGI was 56.1 µM.
For the molecule `COc1cc(/C=C/c2cc(/C=C/c3ccc(O)c(OC)c3)n(C(=O)Nc3ccccc3Cl)n2)ccc1O`, the GI50 was 466 nM and the TGI was 5.17 µM.
Molecule `COc1cc(C2OC(N)=C(C#N)C3=C2C(C)CCC3)cc(OC)c1OC` (stereo not given) displayed a TGI above 100 µM.
In turn, `COc1cc2cc(C(=O)N3CC(CCl)c4ccc([N+](=O)[O-])cc43)[nH]c2c(OC)c1OC` (stereo not given) yielded a total growth inhibition concentration (TGI) above 100 µM.
The same measure, in the same setting: the same measure for `N#CC1=C2SCCN2C(=O)C(C#N)C12CCCCC2` (stereo not given): above 100 µM; for `CSc1nn(C)cc2ncnc1-2`: above 100 µM.
Consider `CC1(C)C2CCC1(C)C(OC(=O)/C=C/C(=O)OC1CC3CCC1(C)C3(C)C)C2` (stereo not given), for which the total growth inhibition concentration (TGI) is above 100 µM.
On the same count and under the same terms, the same measure for `CCOC(=O)Cn1c2ccc(Br)cc2c2nc3ccccc3nc21`: above 100 µM.
Regarding `O=C1c2cccnc2C(=O)c2c1c(C(=O)OCCN1CCCCC1)c1ccccn21`, the concentration for 50% growth inhibition (GI50) was 32.2 nM and the concentration for total growth inhibition (TGI) stood at 0.867 µM.
Molecule `COc1ccc2[nH]c3c(c2c1)CC(=O)N1CCCC(CC3O)C1` (stereo not given) came in with a TGI above 100 µM.
On the same count and under the same terms, the same measure for `CC(=O)O[C@H]1CC[C@H]2[C@@H]3CCC4=CC(=O)C=C[C@]4(O)[C@H]3CC[C@]12C`: above 100 µM.
Still for that read-out and setting: for `CC(C)(Oc1ccc(Cl)cc1)C(=O)N(C(=O)N1CCCCC1)c1ccccc1` the value was 30 µM; for `C=CC(=O)NC(N)=NC#N`, 320 µM.
For `Cc1ccc(Cc2nn(C)c(=O)n2N)cc1`, the concentration for total growth inhibition (TGI) was above 100 µM.
As for `CC(C)(C)c1cc(NC(=O)Nc2ccc(-c3cn4c(n3)sc3cc(OCCN5CCOCC5)ccc34)cc2)no1`, the GI50 was 9650 nM and 2020 nM and > 10000 nM; the concentration for total growth inhibition (TGI) is 26.7 µM and 17.3 µM and > 10 µM.
On to `CC1(C)N=C(N)N=C(N)N1c1ccc(Cl)cc1`, for which the GI50 is 6670 nM and the total growth inhibition concentration (TGI) was above 100 µM.
`CCc1cnn2c(NCc3ccc[n+]([O-])c3)cc(N3CCCC[C@H]3CCO)nc12`: the GI50 was < 11.1 nM and 5.39 nM; the TGI worked out at 1.74 µM.
In the case of `CC(C)(C)c1ccc2c(c1)C#Cc1cc(C(C)(C)C)ccc1OCCCO2`, the TGI is above 100 µM.
The same measure, in the same setting: for `Cc1cc(C)nc(NS(=O)(=O)c2ccc(Nc3c4ccccc4nc4c(C(=O)NC(CO)(CO)CO)cccc34)cc2)n1` the value was above 100 µM; for `CC(C)(C)C(=O)Nc1cccc2oc(-c3ccccc3)cc12`, above 100 µM.
Still for that read-out and setting: the same measure for `Cc1ccc(NC(=O)CC/C(CC(=O)C(C)(C)C)=N\NC(=O)C[n+]2ccccc2)cc1C`: above 100 µM; for `O=C(NC(Cc1ccc(Br)cc1)C(=O)O)c1ccc(I)cc1` (stereo not given): above 100 µM; for `OCC(O)CNc1ncnc2ccccc12` (stereo not given): above 100 µM.
With `Cc1cc(N2CCCCC2)nc(NC2CCCC(Nc3ccnc4cc(Cl)ccc34)C2)n1` (stereo not given), the GI50 was 1530 nM and the TGI amounted to 3.13 µM.
The corresponding values for `COc1cccc(-c2cc(=O)c3cc(N4CCOCC4)ccc3[nH]2)c1` are 33.2 nM and 25.9 µM.
The molecule `O=C(NCCCNCCN1C(=O)c2cccc3cc([N+](=O)[O-])cc(c23)C1=O)c1cc(-c2ccccc2)nc2ccccc12` registered a TGI of 17 µM.
As for `CCOC(=O)CCC(C(=O)OCC)n1nc2ccc(Nc3c(C)[n+]([O-])c4cc(F)c(OCC)cc4[n+]3[O-])cc2n1` (stereo not given), the concentration for total growth inhibition (TGI) was above 100 µM.
